Assay results reported in the supplement of paper PMC3334620.
Over roughly 33,000 sequences, “E-score (-0.5 to 0.5)” has its median near -0.016; the highest 2% begin near 0.32. The list shows a part of the results.

Each sequence was assayed against T1, Stp1 (UniProt B3LFK1) (assay: PBM E-score (8-mer binding enrichment) (E-score (-0.5 to 0.5)); higher = stronger / more preferred TF binding; most listed sequences are background and not binding sites). Conditions: protein concentration: 200 nM; construct: GST-full length.
T1 sequence: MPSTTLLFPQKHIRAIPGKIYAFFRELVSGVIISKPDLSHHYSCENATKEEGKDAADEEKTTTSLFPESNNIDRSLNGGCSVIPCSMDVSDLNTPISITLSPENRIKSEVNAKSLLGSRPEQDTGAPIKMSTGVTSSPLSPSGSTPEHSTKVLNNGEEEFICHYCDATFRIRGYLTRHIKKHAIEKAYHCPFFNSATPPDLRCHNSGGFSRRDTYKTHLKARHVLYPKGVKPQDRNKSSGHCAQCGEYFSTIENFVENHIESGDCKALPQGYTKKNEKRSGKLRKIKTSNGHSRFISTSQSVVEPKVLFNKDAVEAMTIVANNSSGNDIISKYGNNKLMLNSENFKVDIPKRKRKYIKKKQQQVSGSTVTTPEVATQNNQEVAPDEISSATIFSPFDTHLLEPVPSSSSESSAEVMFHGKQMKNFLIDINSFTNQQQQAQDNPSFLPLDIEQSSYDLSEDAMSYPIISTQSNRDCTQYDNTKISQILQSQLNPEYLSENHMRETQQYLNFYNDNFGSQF
Procedure, shortened: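 E-scores (a modified Wilcoxon-Mann-Whitney statistic) were assigned by the Universal PBM Analysis Suite to every ungapped eight-base word pooled with its reverse complement. The input came from universal all-10-mer Agilent arrays made double-stranded by primer extension and probed with GST-tagged yeast transcription factors at about 100-200 nM. Fluorescent anti-GST detected bound protein, and masliner normalised the scans.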

Row | Sequence | PBM E-score
1 | GAACTCTC | -0.248
2 | CTGGATCC | -0.0441
3 | AGAAGGCG | 0.2
4 | GGGTGGGA | -0.15
5 | CCGCCGTA | 0.42
6 | GCGCCTAC | 0.35
7 | CTGTGACC | -0.192
8 | CCCGTGGA | -0.0712
9 | CCCCCCAA | -0.234
10 | GAGGAACA | -0.00245
11 | ATGCGCTG | -0.258
12 | ATTACTTG | 0.0514
13 | ACACGCAT | -0.0369
14 | CACCAAAC | 0.149
15 | CCTTGGTC | -0.131
16 | CTATAGAG | -0.224
17 | CGCCACGC | 0.253
18 | CGTGTAAA | 0.0915
19 | AAAAGCTC | -0.131
20 | GTGACCAC | -0.13
21 | CCTAGACC | -0.2
22 | CTACCATA | -0.0605
23 | TAGCAAAA | 0.111
24 | AACCAGGA | -0.121
25 | ACCAGTTG | -0.0174

Row | Sequence | PBM E-score
26 | ACTACTAA | 0.037
27 | CCCGGTAA | -0.117
28 | AATCTTTA | 0.0281
29 | CTAGTCTA | -0.109
30 | TCCCTGAA | -0.0599
31 | AAATTCGT | 0.23
32 | AACTCTAT | -0.0127
33 | CTCGATAC | 0.0352
34 | AAGTGTAT | 0.0442
35 | AGCAAAAG | 0.0579
36 | CCTAGAAA | -0.113
37 | AGGTTTTA | -0.0167
38 | CAATATGC | 0.0141
39 | ATCGCGTC | -0.0915
40 | CGCTCCTA | -0.0592
41 | ACTTGACT | -0.179
42 | CGATTGCC | 0.212
43 | CGCCGCAA | 0.421
44 | AGTGCACG | 0.0422
45 | CAGGATGA | -0.228
46 | TGTAAAAA | 0.0355
47 | AACGCTGA | 0.00122
48 | TACTTAAA | -0.0622
49 | CGCAGGAA | -0.0921
50 | CCTATCAA | 0.0423

Row | Sequence | PBM E-score
51 | CAGCGGCG | 0.34
52 | ACTACCCC | -0.343
53 | GTGAACAA | 0.0755
54 | AATCTGTC | -0.0151
55 | ACGATACA | 0.0157
56 | ACGCTTGC | -0.232
57 | AAAGACGC | 0.132
58 | AAACAGGG | -0.17
59 | ACCCCGAA | -0.0431
60 | AAGTCCTA | -0.181
61 | AGTGCTAG | -0.251
62 | ATCGGAGA | -0.135
63 | GAACGGCC | 0.233
64 | AACTAGCT | -0.0901
65 | ATGCGTTC | 0.0715
66 | AGAGGACG | -0.0578
67 | CTACTTGC | 0.0115
68 | CCTGCCAA | -0.172
69 | CTATACAC | -0.128
70 | TATCTCCA | 0.103
71 | AACCATAT | 0.0162
72 | CGGAGCGA | 0.129
73 | GGTTAGGA | -0.23
74 | AACAGCTT | -0.113
75 | GGAGTAAA | 0.213

Row | Sequence | PBM E-score
76 | ATCGCGCC | 0.394
77 | ATTCGGGG | -0.0601
78 | ATAAGCTG | -0.0204
79 | CACCTGAC | -0.078
80 | CGGCTCCC | 0.187
81 | CGCGCTTC | -0.0103
82 | GCCAAGAA | 0.0988
83 | TCTCAAAA | 0.179
84 | CAAGTGGC | 0.229
85 | CTAGTATA | -0.0202
86 | AGGGTACT | -0.135
87 | ATCCAGCG | -0.05
88 | CGCACAAA | 0.178
89 | ACGAACCT | 0.0573
90 | ATTCGGAA | 0.11
91 | ACTCAGAG | 0.102
92 | AGACTCAT | -0.164
93 | TAGACATA | 0.0107
94 | GGTGCGGA | 0.148
95 | GAAGCCTC | 0.156
96 | TGAGTCCA | -0.0597
97 | AATGATGT | -0.00207
98 | AACTACAA | 0.141
99 | AGTTCCGG | -0.207
100 | GCCTTACC | 0.0896

Row | Sequence | PBM E-score
101 | GCACCGTA | 0.215
102 | ACTCGGTG | -0.14
103 | CTCTTTCC | -0.363
104 | ACACGGAG | 0.295
105 | CCTACTGA | -0.0981
106 | ATGTAACC | -0.00736
107 | CAGACAAC | 0.0536
108 | CGCGCTAC | 0.117
109 | GGTCCCGA | -0.169
110 | GGGTTTCA | -0.0207
111 | GCCGGATA | 0.119
112 | TGTCAACA | 0.038
113 | ATAGCCTC | -0.0458
114 | AAACTTGG | -0.0623
115 | AAGACTCC | -0.123
116 | ACTAGCCA | 0.00416
117 | CGGGTGTC | -0.185
118 | CAGCTTTA | 0.00187
119 | AGCGCCTA | 0.182
120 | CGAGTGTC | -0.138
121 | GTGGACAA | 0.075
122 | AAGGGTCC | -0.159
123 | CTATTACA | -0.0391
124 | GGGTCGGA | -0.224
125 | ACTGGTGG | -0.24

Row | Sequence | PBM E-score
126 | GAACCTCA | -0.11
127 | CGATCGCC | 0.158
128 | CCAGCTAC | -0.343
129 | AAAGGAGC | -0.0255
130 | CACGCTAC | -0.0658
131 | GAAGTACA | -0.0313
132 | TAAGCCCA | -0.121
133 | AACGTCCC | -0.208
134 | TGGACCCA | -0.121
135 | AAGCGAGC | 0.0162
136 | AACCAATC | 0.0465
137 | GCAAGCGC | -0.0956
138 | ACGAAAGT | 0.146
139 | AAATGAGT | 0.0546
140 | GGACACCC | -0.369
141 | GTGAAATA | 0.0371
142 | ATAAGAGA | 0.132
143 | AACTTCAA | 0.0846
144 | CTACGCGA | -0.119
145 | ATAAAACC | 0.035
146 | CATGACAG | -0.0444
147 | ATACATAG | 0.0689
148 | CATCGCAA | -0.0548
149 | ACCTTCGA | -0.0752
150 | GGACAACA | 0.0294

Row | Sequence | PBM E-score
151 | ACACGACT | -0.11
152 | GAACCTGA | -0.106
153 | CAGCTTAA | -0.0511
154 | GGAAAGTA | 0.00343
155 | CCCGTCAG | -0.322
156 | AACTGTGA | 0.131
157 | ACCCCTCA | -0.347
158 | TGACAAAA | 0.138
159 | TGCGCCCA | -0.00186
160 | TCACGGGA | 0.0905
161 | AGATACAT | 0.121
162 | GGAGGTCA | -0.123
163 | AGGACCAT | -0.113
164 | CATTAATC | 0.0853
165 | AAACATAC | 0.067
166 | AGTCCTAC | -0.0585
167 | GATCATAA | 0.0789
168 | ATGCGATC | -0.156
169 | CCTACGGC | 0.39
170 | CACGACTG | -0.193
171 | TCGCGGCA | 0.346
172 | ACCGTTGC | -0.132
